# Laboratory results from PMC6501163, “Icariin Inhibits AGE-Induced Injury in PC12 Cells by Directly Targeting Apoptosis Regulator Bax” (Oxidative Medicine and Cellular Longevity, 2019).
# B1: apoptosis regulator Bax (natural protein)
# chain: not shown
# notes: Apoptosis regulator Bax, endogenous in rat PC12 pheochromocytoma cells; monomer band around 21 kDa; Detected by western blot with an anti-Bax antibody after DSS cross-linking of the cell lysate; source: endogenous, PC12 lysate (NP40 buffer)
# Target: the molecule itself
# Test: cross-linking; PC12 cells stimulated with AGEs (300 ug/mL); lysed with NP40 buffer; 1 mM disuccinimidyl suberate in 20 mM HEPES, 100 mM KCl, 1 mM dithiothreitol, pH 8.0, 1 h at room temperature; western blot for Bax (monomer around 21 kDa, dimer around 42 kDa)
protein,measurement,value
B1,stoichiometry N,2
